Data: PubChem BioAssay AID881 (National Center for Advancing Translational Sciences (NCATS), 2007)
The campaign covered roughly 110,000 compounds. About 610 (0.55%) were called active. The inconclusive results got no clear call from the source; some entries with a clear call stand among them for comparison. Calls come from the whole dose curve; as a rule, active = well fitted inhibition curve with a large enough effect; inconclusive = small, poorly fitted or top-dose-only effect; inactive = no such curve, though single readings can be large or run the other way. Potencies beside an inconclusive call are fits to weak or partial responses and may not hold up.

target: Polyunsaturated fatty acid lipoxygenase ALOX15B (Homo sapiens) (UniProt O15296); assay: qHTS Assay for Inhibitors of 15-hLO-2 (15-human lipoxygenase 2); details: purified 15hLO-2, xylenol orange hydroperoxide absorbance; activity change, negative = inhibition: at 57.1 µM (top of the series) unless noted; note: nearly all actives have a fitted effect of over 60% in size
Procedure, shortened: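 Read-out: hydroperoxide product oxidises ferrous iron, measured as xylenol orange complex via the 573-to-405 nm absorbance ratio after 30 min. Reaction: 50 nM enzyme, 15 min compound preincubation, 45 uM arachidonic acid, 90 min RT, Hepes pH 7.5 with Triton X-100.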
% is set by controls: 0 for no effect and ±100 for the full control effect; potency is the fitted concentration of half-maximal effect; tags give direction and shape of the fitted curve.

UniProt O15296, sequence (O15296 whole entry, looked up): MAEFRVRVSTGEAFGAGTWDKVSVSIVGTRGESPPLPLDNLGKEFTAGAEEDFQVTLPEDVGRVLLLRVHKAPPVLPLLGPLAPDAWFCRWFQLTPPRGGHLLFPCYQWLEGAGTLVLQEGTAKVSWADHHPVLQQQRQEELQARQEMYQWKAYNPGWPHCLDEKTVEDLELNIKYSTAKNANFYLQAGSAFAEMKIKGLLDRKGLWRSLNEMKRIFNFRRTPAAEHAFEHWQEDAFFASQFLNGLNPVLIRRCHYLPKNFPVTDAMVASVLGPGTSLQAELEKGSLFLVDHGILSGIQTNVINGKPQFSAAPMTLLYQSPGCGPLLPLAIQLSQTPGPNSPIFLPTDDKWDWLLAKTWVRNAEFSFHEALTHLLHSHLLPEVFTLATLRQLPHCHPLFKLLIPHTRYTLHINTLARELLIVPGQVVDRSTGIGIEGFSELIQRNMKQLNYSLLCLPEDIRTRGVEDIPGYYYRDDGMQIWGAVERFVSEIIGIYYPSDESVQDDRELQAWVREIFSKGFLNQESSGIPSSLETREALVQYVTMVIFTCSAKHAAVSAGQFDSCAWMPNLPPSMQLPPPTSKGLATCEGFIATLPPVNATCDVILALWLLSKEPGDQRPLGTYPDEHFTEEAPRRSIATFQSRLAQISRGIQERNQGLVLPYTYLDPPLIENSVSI

Row | Compound | Potency | activity change, negative = inhibition
1 | O=C(CSc1nnc(-c2ccco2)c(-c2ccco2)n1)Nc1ccccc1 | inconclusive: 3.98 µM [inhibitor, full curve, poor fit] | –
2 | CCOC(=O)c1sc(/N=C/N(C)C)c(C(=O)OCC)c1C | – | inactive: -9.41%
3 | CC(C)(C)OC(=O)N1CC=C2C(C#N)=C(N)C(C#N)(C#N)C(c3cccs3)C2C1 (centres undefined) | inconclusive: 31.6 µM [inhibitor, single point] | –
4 | CC(C)OC(=O)CN1C(=O)S/C(=C/c2ccc(N3CCCCC3)o2)C1=O | active: 12.6 µM | –
5 | O=C(c1ccc2ccccc2c1)N1CCN(c2ccc(O)cc2)CC1 | inconclusive: 10 µM [inhibitor, partial curve] | –
6 | COC(=O)c1[nH]c2ccccc2c1NC(=O)Oc1ccccc1 | inconclusive: 25.1 µM [inhibitor, partial curve] | –
7 | CCn1c(=O)n(-c2ccc(Cl)cc2)c(=O)c2c3c(sc21)COC(C)(C)C3 | – | inactive: -3.95%
8 | CCc1nnc(NC(=O)c2ccc(OC)cc2OC)s1 | – | inactive: 1.47%
9 | CCCCCCc1c(O)c2ccccc2[nH]c1=O | – | inactive: -6.93% [at 11.4 µM]
10 | CC1=C([N+](=O)[O-])C(c2cccc(Br)c2)C2=C(N1)c1ccccc1C2=O (centres undefined) | inconclusive: 12.6 µM [inhibitor, partial curve] | –
11 | COc1ccc(Br)cc1C1CC(=O)N2CN(Cc3ccccc3)CSC2=C1C#N (centres undefined) | inconclusive: 20 µM [inhibitor, partial curve] | –
12 | CCOc1ccc(-n2c(-c3ccco3)n[nH]c2=S)cc1 | inconclusive: 25.1 µM [inhibitor, single point] | –
13 | Cc1ccccc1NC(=O)Cn1cnc2c1c(=O)n(C)c(=O)n2C | inconclusive: 0.158 µM [inhibitor, full curve, poor fit] | –
14 | COCCN1CSC(=S)N(Cc2ccco2)C1 | inconclusive: 15.8 µM [inhibitor, partial curve] | –
15 | COc1cccc(C=Nc2ccc3c(c2)OCCO3)c1O | – | inactive: 4.53% [at 2.29 µM]
16 | CCOC(=O)c1cc(-c2ccco2)nc2c1c(C)nn2-c1cccc(Cl)c1 | inconclusive: 25.1 µM [inhibitor, single point] | –
17 | CC(C)N=c1scc(-c2ccco2)n1/N=C/c1ccc(O)c(O)c1 | active: 12.6 µM | –
18 | O=C(NNc1ccc(C2CCCCC2)cc1)C(O)(c1ccccc1)c1cccs1 (centres undefined) | inconclusive: 6.31 µM [inhibitor, partial curve] | –
19 | Cc1ccc(NC(=O)CCSCCC(=O)Nc2ccc(C)c(C)c2)cc1C | inconclusive: 20 µM [inhibitor, partial curve] | –
20 | CC(=O)c1cc(-c2ccccc2)[nH]c1N1CCOCC1 | inconclusive: 20 µM [inhibitor, partial curve] | –
21 | COc1cc(NS(=O)(=O)c2ccc(NC(=O)c3ccco3)cc2)nc(OC)n1 | – | inactive: 3.25%
22 | O=C(c1cnn2c(C(F)(F)F)cc(-c3ccco3)nc12)N1CCCCCC1 | inconclusive: 25.1 µM [inhibitor, partial curve, poor fit] | –
23 | C=CCOC(=O)C1=C(C)NC(=S)NC1/C=C/c1ccccc1 (centres undefined) | inconclusive: 10 µM [inhibitor, partial curve] | –

Row | Compound | Potency | activity change, negative = inhibition
24 | CCOc1ccccc1NC(=O)CSc1nnc(-c2ccccn2)n1Cc1ccco1 | – | inactive: -12.6%
25 | CC1Cc2ccccc2N1Cc1nc2scc(-c3cccs3)c2c(=O)[nH]1 (centres undefined) | inconclusive: 12.6 µM [inhibitor, partial curve] | –
26 | Cc1nc(=O)c(-c2ccccc2)c(C)n1-c1cccc(C(=O)O)c1 | – | inactive: 0.851%
27 | Cc1ccc(C(=O)OCC(=O)Nc2sc3c(c2C#N)CCCC3)cc1NC(=O)c1ccco1 | inconclusive: 20 µM [inhibitor, partial curve] | –
28 | O=c1c(O)c(-c2ccc(O)cc2)oc2cc(O)cc(O)c12 | inconclusive: 25.1 µM [inhibitor, partial curve, poor fit] | –
29 | N#C/C(=C(/N)Sc1ccc(N)cc1)c1ccccc1C(F)(F)F | – | inactive: 32.4%
30 | O=C(Cn1ccc2ccccc2c1=O)NCCC(=O)NC1CCN(Cc2ccccc2)CC1 | – | inactive: 6.29%
31 | CC(=O)O[C@@H]1CC[C@]2(C)C(=C[C@@H]([C@@H]3C=C4C[C@@H](OC(C)=O)CC[C@]4(C)C4=C3[C@H]3C[C@@H]5O[C@@]6(CC[C@H](C)CO6)[C@@H](C)[C@@H]5[C@@]3(C)CC4)C3=C2CC[C@@]2(C)[C@H]4[C@@H](C)[C@]5(CC[C@H](C)CO5)O[C@@H]4C[C@H]32)C1 | – | inactive: -1.56% [at 11.4 µM]
32 | CCCCn1c(-c2cccs2)nc2nc3ccccc3nc21 | inconclusive: 25.1 µM [inhibitor, single point] | –
33 | COc1ccc(Nc2nc(NC(C)(C)C)nc(N3CCCC3)n2)c(OC)c1 | – | inactive: 20.5%
34 | CCOC(=O)c1sc(NC(=O)CSc2nnc(Cc3ccccc3)o2)c(C#N)c1C | inconclusive: 39.8 µM [inhibitor, single point] | –
35 | COc1ccc(-n2c(-c3cccc(OC)c3)nc(=S)c3c2CCCC3)cc1 | inconclusive: 20 µM [inhibitor, partial curve] | –
36 | CN(N=O)C(=O)N[C@H]1C(O)C(O)C(CO)O[C@@H]1O (some centres undefined) | – | inactive: -4.25%
37 | O=c1c(-c2cccs2)nc2cnc(N3CCNCC3)nc2n1C1CC1 | – | inactive: -5.4%
38 | COc1cc2c(cc1OC)C1=C(C#N)CC/C(=N\S(=O)(=O)c3ccccc3)N1CC2 | – | inactive: -9.19%
39 | Cc1ccccc1-c1cncnc1NCc1cccnc1 | inconclusive: 31.6 µM [inhibitor, single point] | –
40 | Fc1ccc(/C=N/c2c(-c3ccc(F)cc3)nc3n2CCS3)cc1 | inconclusive: 15.8 µM [inhibitor, partial curve] | –
41 | CCOC(=O)c1c(N2C(=O)Nc3cc(Cl)c(Cl)cc3N2O)sc2c1CCCCC2 | inconclusive: 20 µM [inhibitor, partial curve] | –
42 | COC(=O)[C@@]1(Cc2ccccc2)[C@H]2c3cc(C(=O)N(C)C)n(C[C@H](O)CO)c3C[C@H]2CN1C(=O)c1ccccc1 | – | inactive: 15%
43 | Nc1nc2ccc([N+](=O)[O-])c(N)c2s1 | inconclusive: 31.6 µM [inhibitor, single point] | –
44 | Cc1ccc(OCCCN2C(=O)C(=O)c3cccc(C)c32)cc1 | inconclusive: 20 µM [inhibitor, partial curve] | –
45 | Cc1cccc(C)c1NC(=O)C1(NC(=O)C2CCCN2C(=O)OC(C)(C)C)CCCCC1 (centres undefined) | inconclusive: 20 µM [inhibitor, partial curve] | –
46 | CCOC(=O)c1c(NC(=S)NC(=O)c2ccco2)sc2c1CCCC2 | inconclusive: 12.6 µM [inhibitor, partial curve] | –

Row | Compound | Potency | activity change, negative = inhibition
47 | O=C(O)c1cccnc1SC1CC(=O)N(Cc2ccccc2)C1=O (centres undefined) | – | inactive: -4.33%
48 | COc1ccc(N/N=C2/CCCCC2=O)cc1 | inconclusive: 31.6 µM [inhibitor, single point] | –
49 | COc1ccccc1-c1nccc(NCc2cnc(C)cn2)n1 | inconclusive: 39.8 µM [inhibitor, single point] | –
50 | CC(C)C1NC2(C(=O)c3ccccc3C2=O)C2C(=O)N(c3ccc(F)cc3)C(=O)C12 (centres undefined) | – | inactive: -23.9%
51 | COc1ccccc1NC1=C(Cl)C(=O)N(C2CCCCC2)C1=O | inconclusive: 20 µM [inhibitor, single point] | –
52 | CN1/C(=C/C=C(/C#N)C(N)=O)C(C)(C)c2ccccc21 | inconclusive: 20 µM [inhibitor, single point] | –
53 | CCc1ccc(C2C(C#N)=C(N)SC(N)=C2C#N)cc1 | inconclusive: 12.6 µM [inhibitor, partial curve] | –
54 | CN(C)S(=O)(=O)Oc1cccc(C(=O)Nc2ccc(Cl)cc2)c1 | inconclusive: 0.398 µM [inhibitor, partial curve] | –
55 | O=C(Cc1ccccc1)Nc1nc(=O)c2ccccc2s1 | inconclusive: 39.8 µM [inhibitor, single point] | –
56 | COc1cc(C(=O)O/N=C2\C=CC(=O)C(C)=C2)cc(OC)c1OC | inconclusive: 10 µM [inhibitor, partial curve] | –
57 | CCn1cc(C(=O)NCc2ccc(C)o2)c2cc(OC)c(OC)cc2c1=O | – | inactive: -11.1%
58 | CCCn1c(C)nc2c(NCCN(C)C)nc(C)nc21 | – | inactive: 22.8%
59 | COc1ccc(-c2cc(C(F)(F)F)nc(NC3CCCC3)n2)cc1OC | inconclusive: 0.251 µM [inhibitor, full curve, poor fit] | –
60 | COc1ccccc1N(C(C)=O)C1SC(=O)N(c2ccccc2)C1=O (centres undefined) | inconclusive: 0.158 µM [inhibitor, full curve, poor fit] | –
61 | Cc1ccc(S(=O)(=O)NNc2ccccc2)cc1 | inconclusive: 15.8 µM [inhibitor, partial curve] | –
62 | Cc1ccccc1NC(=O)CC1SC(=O)N(c2ccccc2)C1=O (centres undefined) | inconclusive: 7.94 µM [inhibitor, full curve] | –
63 | CCNc1ncc2nc(-c3ccc(F)cc3)c(=O)n(C)c2n1 | – | inactive: 5.82%
64 | COc1ccccc1CN1CC(C(=O)NCC2CCCO2)CC1=O (centres undefined) | inconclusive: 0.251 µM [inhibitor, full curve, poor fit] | –
65 | Cc1ccc(-c2oc3ccccc3c(=O)c2O)cc1 | inconclusive: 7.94 µM [inhibitor, partial curve] | –
66 | Cc1oc(/N=C/c2c(O)ccc3ccccc23)c(C#N)c1C | inconclusive: 31.6 µM [inhibitor, single point] | –
67 | O=[N+]([O-])c1ccc(Cl)c(C2Nc3cccc4cccc(c34)N2)c1 | active: 12.6 µM | –
68 | Cc1cccc(-c2nc(CS(=O)CC(=O)N3CCc4ccccc4C3)c(C)o2)c1 (centres undefined) | – | inactive: -23.6%
69 | CN(CC(=O)Nc1ccccc1N1CCOCC1)S(=O)(=O)c1ccc(F)cc1 | inconclusive: 0.199 µM [inhibitor, full curve] | –
